# Where “and” joins values, the source holds several entries; their conditions need not be identical. Equal entries are not always repeated. This list was built around the results that the source calls inconclusive (neither active nor inactive); the mix of calls is not that of the screen. For some of these results: A potency beside an inconclusive call is a rough fit, not a confirmed value. Calls of active or inactive are those of the source. Unless noted, the call rests on the fitted dose curve; in most records, active means well fitted curve in the direction sought with a large enough effect in the repeat runs; inconclusive means weak or mixed curves; inactive means no such curve, though single readings can be large; an effect the other way counts as inactive or inconclusive.
# Tests used:
# [1] = molecular target: Nuclear receptor subfamily 1 group I member 3 (Homo sapiens) (UniProt Q14994); assay: qHTS assay to identify small molecule agonists of the constitutive androstane receptor (CAR) signaling pathway (AID 1224839); further: nearly all actives have a fitted effect of over 15% in size; further: potency means the concentration at half of the fitted maximal effect
# Method in brief: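 Luminescent ONE-Glo read-out after 24 hr, 37 C exposure of double-stable HepG2-CYP2B6-hCAR reporter cells to a 15-point compound series, in the presence of 0.75 uM PK11195 (final).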
# [2] = molecular target: Cytochrome P450 3A4 (Homo sapiens) (UniProt P08684); assay: Cytochrome P450 Family 3 Subfamily A Member 4 (CYP3A4) small molecule antagonists: luciferase reporter qHTS assay (AID 1671201); further: nearly all actives have a fitted effect of over 50% in size; further: potency means the concentration at half of the fitted maximal effect
# Method in brief: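 Recombinant human CYP3A4 converts a proluciferin substrate to luciferin over 1 h at room temperature after NADPH regeneration solution is added (compound preincubated 10 min); detection reagent stops reaction, luminescence read 20 min later as relative units.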
# [3] = qHTS assay for small molecule disruptors of the mitochondrial membrane potential - cell viability (AID 720634; calls by dose curve; further: nearly all actives have a fitted effect of over 20% in size; further: potency means the concentration at half of the fitted maximal effect;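 on activity change, negative = cytotoxicity: human HepG2 liver cancer cells; on the % scale 0 is the no-effect control and ±100 the full control effect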)
# Method in brief: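 After overnight attachment at 37 C, HepG2 cells received compound or DMSO vehicle for 1 hr. Viability is then taken from ATP-driven luminescence following a 30 min room-temperature CellTiter-Glo step.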
# [4] = A CellTox Green Cytotoxicity Assay to monitor cytotoxicity in HepG2 cells - 32 hour (AID 1224883); further: nearly all actives have a fitted effect of over 50% in size; further: potency means the concentration at half of the fitted maximal effect; on cytotoxicity increase: on the % scale 0 is the no-effect control and ±100 the full control effect
# Method in brief: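 Real-time, homogeneous cytotoxicity readout: dead-cell DNA staining by CellTox Green in HepG2 monolayers, fluorescence measured at timed intervals up to 40 h of continuous compound exposure.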
# [5] = A CellTox Green Cytotoxicity Assay to monitor cytotoxicity in HEK293 cells - 32 hour (AID 1224881); further: nearly all actives have a fitted effect of over 40% in size; further: potency means the concentration at half of the fitted maximal effect
# Method in brief: (§1)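 Cytotoxicity was tracked continuously in HEK293 cells by a DNA-binding dye excluded from viable cells. Compounds were transferred in DMSO 5 h after seeding; fluorescence was recorded at intervals up to 40 h.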
# [6] = A CellTox Green Cytotoxicity Assay to monitor cytotoxicity in HEK293 cells - 16 hour (AID 1224888); further: nearly all actives have a fitted effect of over 35% in size; further: potency means the concentration at half of the fitted maximal effect
# Method in brief: as §1
# [7] = molecular target: Estrogen receptor (Homo sapiens) (UniProt P03372); assay: qHTS assay to identify small molecule antagonists of the estrogen receptor alpha (ER-alpha) signaling pathway using the BG1 cell line in the presence of 0.1 nM 17-beta-estradiol (AID 1259244); further: on the % scale 0 is the no-effect control and ±100 the full control effect; nearly all actives have a fitted effect of over 50% in size
# Method in brief: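 After 5 days in hormone-depleted medium (charcoal-stripped serum, no phenol red), VM7Luc4E2 cells were seeded, incubated 24 h, then co-treated with compound and 0.1 nM (final) estradiol for 22 h before luminescence detection.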
# [8] = qHTS assay to identify small molecule antagonists of the estrogen related receptor (ERR) signaling pathway from Tox21 library - cell viability counter screen (AID 1224834); further: nearly all actives have a fitted effect of over 30% in size; further: potency means the concentration at half of the fitted maximal effect
# Method in brief: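 Cytotoxicity of test substances is gauged in the same ERR cells used for the antagonist screen, after 17.5 h of compound treatment at 37 C, by CellTiter-Fluor fluorescence measured after 30 min.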
# [9] = qHTS assay to identify small molecule agonists of the sonic hedgehog signaling (Shh) pathway - cell viability counter screen (AID 1259366); further: nearly all actives have a fitted effect of over 50% in size; further: potency means the concentration at half of the fitted maximal effect
# Method in brief: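 Cytotoxicity counter screen: CellTiter-Fluor reagent added after 23 h compound exposure, then 1 h at 37C and fluorescence read. Cells were 3T3 Gli1-Luc, seeded 2,000 per well and dosed 4 h post-plating.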
# [10] = qHTS assay to identify small molecule antagonists of the estrogen receptor alpha (ER-alpha) signaling pathway using the BG1 cell line - cell viability counter screen (AID 743081); conditions: BG1Luc4E2 viability, CellTiter-Fluor, 22 h; activity change, negative = cytotoxicity: at 70.3 µM (top of the series) unless noted;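 further: compound given together with 17beta-estradiol as the ER stimulus; on the % scale 0 is the no-effect control and ±100 the full control effect; nearly all actives have a fitted effect of over 45% in size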
# [11] = molecular target: Peroxisome proliferator-activated receptor delta (Homo sapiens) (UniProt Q03181); assay: qHTS assay to identify small molecule agonists of the peroxisome proliferator-activated receptor delta (PPARd) signaling pathway (AID 743212; calls by dose curve;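 further: HEK293H cells with PPARd UAS beta-lactamase reporter GeneBLAzer system; on the % scale 0 is the no-effect control and ±100 the full control effect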); conditions: HEK293H PPARd-UAS-bla, beta-lactamase FRET ratio, 17 h; activation: at 62.6 µM (top of the series) unless noted
# Method in brief: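 A PPARd-bla HEK293H line with beta-lactamase under an Upstream Activator Sequence is treated with compounds at 37 C. Substrate loading for 2 h at room temperature precedes the fluorescence measurement.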
# [12] = qHTS assay to identify small molecule antagonists of the sonic hedgehog signaling (Shh) pathway - cell viability counter screen (AID 1259367); further: nearly all actives have a fitted effect of over 55% in size; further: potency means the concentration at half of the fitted maximal effect
# Method in brief: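 After a 4 hr settling period, 3T3 Gli1-Luc cells were treated with DMSO-dissolved chemicals and conditioned medium, kept 24 hr at 37C in 5% CO2, and assayed for viability by CellTiter-Fluor fluorescence following 1 hr reagent incubation.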
# [13] = qHTS assay to identify small molecule agonists of the hypoxia (HIF-1) signaling pathway - cell viability counter screen (AID 1224844; calls by dose curve; further: nearly all actives have a fitted effect of over 50% in size; further: potency means the concentration at half of the fitted maximal effect)
# Method in brief: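 Tox21 10K compounds were added to HRE-bla ME-180 cells (0.5% dialyzed FBS) and incubated 17 hrs at 37C; ATP-based CellTiter-Glo luminescence then reported cell viability in the same wells.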
# [14] = qHTS assay for small molecules that induce genotoxicity in human embryonic kidney cells expressing luciferase-tagged ATAD5 (AID 651632); further: potency means the concentration at half of the fitted maximal effect; nearly all actives have a fitted effect of over 15% in size
# Method in brief: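 Increased luciferase signal from ATAD5-tagged reporter cells indicates DNA-damage-driven ATAD5 induction. HEK293T cells are treated for 16 hr at 37C before detection with Amplite.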
# [15] = qHTS assay to identify small molecule antagonists of the glucocorticoid receptor (GR) signaling pathway - cell viability counter screen (AID 720693); conditions: GR-bla HeLa viability, CellTiter-Glo luminescence, 18 h, with 5 nM dexamethasone present; viability change, negative = cytotoxic: at 58.5 µM (top of the series); further: nearly all actives have a fitted effect of over 55% in size; further: potency means the concentration at half of the fitted maximal effect
# [16] = qHTS RealTime-Glo MT Cell Viability Assay in HEK293 cells - 0 hour (AID 1224880); further: nearly all actives have a fitted effect of over 45% in size; further: potency means the concentration at half of the fitted maximal effect
# Method in brief: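 Nonlytic bioluminescent viability monitoring. HEK293 at 600 cells/well with reagent; 5 h settle; compound transfer by pintool; plates held at 37 C and read at set time points.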
# [17] = qHTS assay to identify small molecule HDAC inhibitors (AID 1259364); further: potency means the concentration at half of the fitted maximal effect; nearly all actives have a fitted effect of over 45% in size
# Method in brief: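 Homogeneous cell-based luminescent assay of endogenous class I/II HDAC activity; HCT-116 cells, 2 h compound exposure, 30 min HDAC-Glo development at RT.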
# [18] = qHTS assay to identify small molecule agonists of the TGF-beta/Smad signaling pathway (AID 1346859; active means well fitted activation curve with a large enough effect in the signal ratio in the repeat runs, not every such curve was filed as active; inconclusive means weak or mixed curves; the % refers to the signal ratio; further: on the % scale 0 is the no-effect control and ±100 the full control effect)
# Method in brief: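 Fluorescence (ex 405 nm; em 460 and 530 nm) was read 2 h after LiveBLAzer FRET substrate at RT. The preceding compound treatment of overnight-plated SBE-bla HEK293T cells lasted 5 h at 37 C.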
# [19] = qHTS assay to identify small molecule antagonists of the estrogen related receptor (ERR) signaling pathway - cell viability counter screen (AID 1224818); further: potency means the concentration at half of the fitted maximal effect;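 further: viability measured after 17.5 h of compound exposure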
# Method in brief: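 Cells carrying the ERR pathway reporter were seeded and incubated for 6 hours before compound addition. After a 17.5-hour exposure at 37 C, live-cell protease activity was measured by CellTiter-Fluor fluorescence following 30 minutes of incubation.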
# [20] = qHTS assay to identify small molecule antagonists of the estrogen related receptor (ERR) signaling pathway (AID 1224819; further: nearly all actives have a fitted effect of over 50% in size; further: potency means the concentration at half of the fitted maximal effect)
# Method in brief: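 Compounds dissolved in DMSO were pin-transferred onto ERR cells that had been plated 6 h earlier, and cells were then incubated 18 h at 37 C; signal was luciferase luminescence via One-Glo.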
# Tags describe the fitted curve by direction and shape.
# UniProt Q03181, sequence (Q03181 whole entry, looked up): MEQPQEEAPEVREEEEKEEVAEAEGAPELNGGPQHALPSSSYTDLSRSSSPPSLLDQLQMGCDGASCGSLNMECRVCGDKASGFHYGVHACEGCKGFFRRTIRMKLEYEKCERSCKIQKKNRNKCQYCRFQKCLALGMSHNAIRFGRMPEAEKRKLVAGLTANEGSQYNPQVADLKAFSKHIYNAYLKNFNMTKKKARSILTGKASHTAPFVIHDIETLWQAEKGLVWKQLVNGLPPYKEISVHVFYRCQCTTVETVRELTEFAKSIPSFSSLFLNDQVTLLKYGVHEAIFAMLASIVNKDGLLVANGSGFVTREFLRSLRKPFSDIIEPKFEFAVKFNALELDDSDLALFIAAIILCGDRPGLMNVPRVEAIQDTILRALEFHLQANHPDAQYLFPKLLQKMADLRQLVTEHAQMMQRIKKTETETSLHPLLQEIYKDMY
# UniProt Q14994, sequence (Q14994 whole entry, looked up): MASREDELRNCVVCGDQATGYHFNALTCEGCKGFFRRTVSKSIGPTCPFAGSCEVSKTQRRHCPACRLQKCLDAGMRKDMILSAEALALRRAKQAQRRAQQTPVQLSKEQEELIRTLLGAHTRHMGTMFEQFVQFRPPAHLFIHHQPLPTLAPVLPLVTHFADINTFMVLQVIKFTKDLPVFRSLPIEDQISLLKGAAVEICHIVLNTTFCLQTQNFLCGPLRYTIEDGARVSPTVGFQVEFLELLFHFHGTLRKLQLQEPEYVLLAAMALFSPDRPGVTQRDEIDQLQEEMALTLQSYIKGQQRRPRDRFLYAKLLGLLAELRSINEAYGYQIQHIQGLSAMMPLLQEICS
# UniProt P08684, sequence (P08684 whole entry, looked up): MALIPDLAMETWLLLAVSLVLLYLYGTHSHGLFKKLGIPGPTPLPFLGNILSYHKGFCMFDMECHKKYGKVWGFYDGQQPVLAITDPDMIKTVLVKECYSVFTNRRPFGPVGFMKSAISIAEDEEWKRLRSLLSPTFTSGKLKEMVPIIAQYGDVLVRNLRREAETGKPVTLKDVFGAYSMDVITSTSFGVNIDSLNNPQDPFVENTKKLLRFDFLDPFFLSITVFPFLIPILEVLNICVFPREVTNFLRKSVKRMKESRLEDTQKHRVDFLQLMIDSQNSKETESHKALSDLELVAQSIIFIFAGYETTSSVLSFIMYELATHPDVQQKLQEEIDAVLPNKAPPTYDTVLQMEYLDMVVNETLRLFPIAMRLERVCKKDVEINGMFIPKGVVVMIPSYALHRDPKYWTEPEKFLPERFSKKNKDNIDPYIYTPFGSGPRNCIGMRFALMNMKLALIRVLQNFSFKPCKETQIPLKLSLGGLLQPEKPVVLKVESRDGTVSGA
# UniProt P03372, sequence (P03372 whole entry, looked up): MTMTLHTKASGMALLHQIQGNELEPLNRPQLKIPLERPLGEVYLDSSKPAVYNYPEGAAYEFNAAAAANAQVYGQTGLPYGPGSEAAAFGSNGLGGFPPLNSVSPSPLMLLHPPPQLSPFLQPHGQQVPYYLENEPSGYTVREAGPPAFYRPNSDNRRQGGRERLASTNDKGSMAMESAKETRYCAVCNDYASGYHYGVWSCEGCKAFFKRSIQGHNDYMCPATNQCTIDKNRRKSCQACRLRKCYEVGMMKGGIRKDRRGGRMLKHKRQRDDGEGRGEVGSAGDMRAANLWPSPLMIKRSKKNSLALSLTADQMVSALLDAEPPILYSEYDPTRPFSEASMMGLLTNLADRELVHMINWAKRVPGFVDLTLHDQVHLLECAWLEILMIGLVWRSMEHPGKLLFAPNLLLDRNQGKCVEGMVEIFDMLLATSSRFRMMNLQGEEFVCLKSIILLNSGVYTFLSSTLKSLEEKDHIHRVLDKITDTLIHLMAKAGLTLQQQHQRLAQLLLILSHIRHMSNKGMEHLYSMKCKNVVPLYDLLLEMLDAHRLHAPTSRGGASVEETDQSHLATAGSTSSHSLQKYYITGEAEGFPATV
structure (smiles),measurement,setting,value
Cc1cc2cc3c(C)cc(=O)oc3c(C)c2o1,Potency,[1],active: 11.9 µM
same,Potency,[2],"inconclusive: 3.47 µM [inhibitor, full curve]"
CC(C)OC(=O)COc1ccc(Cl)cc1Cl,Potency,[3],inactive
same,Potency,[4],inactive
CC12CCC(C1)C(C)(C)C2O (centres undefined),Potency,[5],"inconclusive: 34.7 µM [activator, partial curve]"
same,Potency,[6],"inconclusive: 38.9 µM [activator, partial curve]"
same,Potency,[7],inactive
OC[C@H]1O[C@@H](O[C@H]2[C@H](O)[C@@H](O)[C@H](O)O[C@@H]2CO)[C@H](O)[C@@H](O)[C@H]1O,Potency,[3],inactive
same,Potency,[8],inactive
same,Potency,[2],inactive
c1ccc2c(c1)CCCC2C1=NCCN1 (centres undefined),Potency,[9],inactive
CC(=O)CC(C)(C)O,Potency,[10],inactive
same,Potency,[4],inactive
same,Potency,[7],inactive
COP(=O)(OC)OC(c1ccc(Cl)cc1)P(=O)(OC)OC (centres undefined),Potency,[11],inactive
Nc1ncnc(Nc2ccccc2)n1,Potency,[10],inactive
same,Potency,[1],"inconclusive: 26.6 µM [activator, partial curve]"
same,Potency,[6],inactive
same,Potency,[12],inactive
CCn1cc(C(=O)O)c(=O)c2cnc(N3CCCC3)nc21,Potency,[3],inactive
same,activation,[1],inactive: -0.437% [at 8.39 µM]
same,"activity change, negative = cytotoxicity",[13],inactive: 0.904% [at 6.97 µM]
same,cytotoxicity increase,[5],inactive: 4.33% [at 6.97 µM]
O=C1c2ccccc2C(=O)c2cc(O)ccc21,Potency,[14],"inconclusive: 34.4 µM [activator, partial curve, poor fit]"
same,Potency,[3],"inconclusive: 77 µM [cytotoxic, partial curve, poor fit]"
same,Potency,[15],"inconclusive: 30.9 µM [cytotoxic, partial curve, poor fit]"
same,"activity change, negative = cytotoxicity",[10],inconclusive: -30.5% [cytotoxic]
same,Potency,[8],inconclusive: 61.2 µM [cytotoxic]
same,Potency,[2],inconclusive: 63.4 µM [inhibitor]
Brc1ccc(Br)c(Br)c1,Potency,[8],inactive
same,Potency,[13],"inconclusive: 62 µM [cytotoxic, partial curve, poor fit]"
same,Potency,[5],"inconclusive: 55.3 µM [activator, single point] and inconclusive: 54.9 µM [activator, single point]"
same,Potency,[6],"inconclusive: 55.3 µM [activator, single point]"
CN(C1CCCCC1)S(=O)(=O)c1ccccc1N,Potency,[1],"inconclusive: 54.5 µM [activator, partial curve]"
same,Potency,[2],"inconclusive: 12.6 µM [inhibitor, full curve]"
CC(C)CCCC(C)N (centres undefined),Potency,[13],inactive
COC(OC)(C(=O)c1ccccc1)c1ccccc1,Potency,[10],inactive
same,Potency,[16],"inconclusive: 27.5 µM [rising, partial curve, poor fit]"
O=C(O)C(=O)Cc1ccccc1,Potency,[11],inactive
Cc1ncc(CO)c(C=O)c1O,Potency,[10],inactive
CNC(=O)NC,Potency,[7],inactive
CCOc1ccc(O)cc1,Potency,[14],"inconclusive: 77 µM [activator, partial curve, poor fit]"
same,Potency,[7],inactive
CC(C)CCOC(=O)c1ccc(N(C)C)cc1,Potency,[14],active: 13.3 µM
same,Potency,[3],"inconclusive: 13.3 µM [cytotoxic, partial curve, poor fit]"
same,Potency,[17],"inconclusive: 26.6 µM [inhibitor, partial curve, poor fit]"
C=C(C)C(=O)OCC1CCCO1 (centres undefined),Potency,[15],inactive
Cc1cccc2nccnc12,Potency,[6],"inconclusive: 24.5 µM [activator, partial curve]"
same,Potency,[2],"inconclusive: 89.4 µM [inhibitor, partial curve, poor fit]"
CC(C)(C)c1ccc(N)cc1,Potency,[16],inactive
same,Potency,[2],active: 28.3 µM
CCCCCCCC1CCCC1=O (centres undefined),Potency,[12],inactive
O=CN1CCOCC1,Potency,[9],inactive
same,Potency,[18],inactive
CCO[Si](CCCS)(OCC)OCC,Potency,[5],inactive
same,Potency,[6],"inconclusive: 49 µM [activator, partial curve]"
CC(O)C(CO)C(C)O (centres undefined),Potency,[13],inactive
Cc1cccc(N)n1,Potency,[10],inactive
CC(C)OCC1CO1 (centres undefined),Potency,[12],inconclusive: 68.2 µM [cytotoxic]
CCOc1ccc2nc(N)sc2c1,Potency,[13],inactive
same,Potency,[17],active: 24.1 µM
O=C(O)c1cc(Cl)cc([N+](=O)[O-])c1Cl,Potency,[13],inactive
CCCCCCC1CCC(=O)O1 (centres undefined),Potency,[6],inactive
same,Potency,[2],inactive
CC(C)(C)C(=O)NCCCC(=O)O,Potency,[11],inactive
same,Potency,[12],inactive
CC1OC1C1CCC2(C)OC2C1 (centres undefined),Potency,[2],"inconclusive: 63.3 µM [inhibitor, partial curve]"
CCCCN1C=CN(C)C1,Potency,[2],"inconclusive: 16.1 µM [inhibitor, partial curve]"
CC(C)(C)OC(=O)c1ccc(O)cc1,Potency,[3],"inconclusive: 77 µM [cytotoxic, single point]"
same,Potency,[4],"inconclusive: 61.6 µM [activator, single point]"
same,Potency,[17],"inconclusive: 61.1 µM [inhibitor, partial curve, poor fit]"
CC(C)NC(=O)NC(C)C,Potency,[11],inactive
Nc1cc(C(=O)O)c(O)c(S(=O)(=O)O)c1,Potency,[9],"inconclusive: 38 µM [rising, partial curve]"
Cc1ccc(C)c(S(=O)(=O)O)c1,Potency,[15],inactive
COc1ccc(OC)c(Cl)c1,Potency,[15],inactive
same,Potency,[5],inactive
CCCCN(CC)c1nc(C)nc2c1c(C)cn2-c1c(C)cc(C)cc1C,Potency,[19],inconclusive: 28.2 µM [cytotoxic]
same,Potency,[20],inconclusive: 19.6 µM [inhibitor]
O=C1Nc2ccc(I)cc2/C1=C/c1cc(Br)c(O)c(Br)c1,Potency,[19],inconclusive: 22.8 µM [cytotoxic]
same,Potency,[20],inconclusive: 17.4 µM [inhibitor]
O=C(c1ccc(Cl)cc1)N1CCN(c2ccc([N+](=O)[O-])c3ncccc23)CC1,Potency,[19],inconclusive: 11 µM [cytotoxic]
same,Potency,[20],active: 7.5 µM
O=c1ccc2ccc(O)c(O)c2o1,Potency,[19],inactive
same,Potency,[20],inconclusive: 29.8 µM [inhibitor]
COC(=O)C1=C(C)NC(C)=C([N+](=O)[O-])C1c1ccccc1C(F)(F)F (centres undefined),Potency,[19],inconclusive: 25.6 µM [cytotoxic]
same,Potency,[20],inconclusive: 12.8 µM [inhibitor]
COc1ccc(/C=C2\COc3ccc(C)cc3C2=O)cc1O,Potency,[19],inconclusive: 16.2 µM [cytotoxic]
same,Potency,[20],inactive
C=C1C(=O)O[C@@H]2[C@H]3O[C@]3(C)CCC=C(C)CC[C@@H]12,Potency,[19],"inconclusive: 33.5 µM [cytotoxic, partial curve, poor fit]"
same,Potency,[20],inactive
O=c1oc(Cl)c(Cl)c2ccccc12,Potency,[19],"inconclusive: 23.7 µM [cytotoxic, single point]"
same,Potency,[20],inconclusive: 28.7 µM [inhibitor]
O=C1C2C=CC=CC2=NC(=S)N1CCN1CCC(=C(c2ccc(F)cc2)c2ccc(F)cc2)CC1 (centres undefined),Potency,[19],inactive
same,Potency,[20],inconclusive: 25.6 µM [inhibitor]

# — PubChem BioAssay (Tox21)
